Assay [1] relates to HSkMC (human skeletal muscle cells). Description: cytotoxicity call (relative viability < 0.9). The following applies: 10 µM.
The test system of assay [2] is S. aureus RN4220. As to the kind of experiment: growth inhibition call (relative growth <= 0.2). The following applies: 50 µM.

Drawing on the antibiotic and cytotoxicity screens of Wong et al. (2023), this text covers cytotoxicity call and growth inhibition call for 29 compounds.

The other results are listed elsewhere or left out.

Consider `C[C@@H]1CN([C@@H](C)CO)C(=O)c2cc(C#CCc3ccccc3)cnc2O[C@H]1CN(C)CC1CCOCC1`, for which the cytotoxicity call in assay [1] was “inactive”. In addition, the growth inhibition call in assay [2] was “inactive”.

For `COC(=O)[C@H](Cc1ccccc1)N1CC2=C[C@@H]([C@@H](O)CCn3cc(C(=O)NO)nn3)n3c(=O)n(C)c(=O)n3[C@@H]2[C@@H](C2CC2)O1`, the cytotoxicity call in assay [1] was “inactive”. The growth inhibition call in assay [2] was “inactive”.

In the case of `C[C@@H]1CN([C@H](C)CO)C(=O)c2c(c3ccccc3n2C)-c2ccccc2CO[C@@H]1CN(C)CC1CCCCC1`, the cytotoxicity call in assay [1] was “inactive”. Further, the growth inhibition call in assay [2] is “inactive”.

Take `O=C(CS)NCCCCCCNC(=O)[C@@H]1C[C@@H]2C(=O)N3CCC[C@H]3C(=O)N2[C@@H]1c1cccc(OCCO)c1`: the cytotoxicity call in assay [1] was “inactive”. In addition, in assay [2], the growth inhibition call was “inactive”.

With `CNC(=O)C[C@H]1CC[C@H]2[C@@H](COC[C@@H](O)CN2C(=O)c2ccc3c(c2)OCO3)O1`, in assay [1], the cytotoxicity call is “inactive”. For the same compound, the growth inhibition call in assay [2] is “inactive”.

Consider `COc1ccc([C@@H](NC(=O)C2CCN(Cc3ccc(Oc4ccccc4)cc3)CC2)c2ccccn2)cc1`, for which the cytotoxicity call in assay [1] was “inactive”. Also, in assay [2], the growth inhibition call was “inactive”.

On to `Cc1noc(C)c1S(=O)(=O)Nc1ccc2c(c1)C(=O)N([C@H](C)CO)C[C@H](C)[C@@H](CN(C)C(=O)Nc1ccccc1)O2`, for which, in assay [1], the cytotoxicity call was “inactive”. Also, the growth inhibition call in assay [2] was “inactive”.

Turning to `C[C@@H]1CCCCO[C@@H](CN(C)Cc2ccc3c(c2)OCO3)[C@@H](C)CN([C@H](C)CO)C(=O)c2cc(NC(=O)Nc3cccc4ccccc34)ccc2O1`, in assay [1], the cytotoxicity call was “inactive”. In addition, in assay [2], the growth inhibition call is “inactive”.

Regarding `COCC(=O)Nc1ccc2c(c1)C(=O)N(C)[C@H]1CC[C@@H](CC(=O)NC3Cc4ccccc4C3)O[C@@H]1CO2`, the cytotoxicity call in assay [1] was “inactive”. In addition, in assay [2], the growth inhibition call was “inactive”.

Regarding `Cc1noc(C)c1S(=O)(=O)Nc1ccc2c(c1)C(=O)N([C@H](C)CO)C[C@H](C)[C@H](CN(C)C(=O)Nc1cccc3ccccc13)OCCCC[C@@H](C)O2`, in assay [1], the cytotoxicity call is “inactive”. Also, the growth inhibition call in assay [2] is “inactive”.

As for `Cc1ccc(S(=O)(=O)Nc2ccc3c(c2)C(=O)N([C@H](C)CO)C[C@H](C)[C@@H](CN(C)Cc2ccc(C(F)(F)F)cc2)O3)cc1`, in assay [1], the cytotoxicity call was “inactive”. For the same compound, the growth inhibition call in assay [2] is “inactive”.

On to `C[C@@H]1CCCCO[C@@H](CN(C)C(=O)Nc2ccccc2)[C@@H](C)CN([C@@H](C)CO)C(=O)c2cc(NC(=O)Nc3ccccc3)ccc2O1`, for which the cytotoxicity call in assay [1] is “inactive”. Further, the growth inhibition call in assay [2] is “inactive”.

As for `C[C@@H]1CCCCO[C@@H](CN(C)CC2CCCCC2)[C@@H](C)CN([C@@H](C)CO)C(=O)c2cc(N(C)C)ccc2O1`, the cytotoxicity call in assay [1] was “inactive”. In addition, the growth inhibition call in assay [2] was “inactive”.

In the case of `CCS(=O)(=O)Nc1ccc2c(c1)C(=O)N(C)[C@@H]1CC[C@@H](CC(=O)NCc3ccccc3F)O[C@H]1CO2`, the cytotoxicity call in assay [1] is “inactive”. Further, in assay [2], the growth inhibition call is “inactive”.

On to `C[C@H](CO)N1C[C@H](C)[C@H](CN(C)S(=O)(=O)c2cn(C)cn2)Oc2ncc(-c3cccc(F)c3)cc2C1=O`, for which the cytotoxicity call in assay [1] is “inactive”. Moreover, in assay [2], the growth inhibition call was “inactive”.

`COc1ccccc1C#Cc1ccc2c(c1)O[C@H](CN(C)Cc1cccnc1)[C@H](C)CN([C@H](C)CO)S2(=O)=O`: the cytotoxicity call in assay [1] is “inactive”. In assay [2], the growth inhibition call was “inactive”.

For the compound `COc1cccc(C#Cc2ccc([C@@H]3[C@@H](CO)N4C(=O)CN(S(=O)(=O)c5ccccc5C)C[C@H]34)cc2)c1`, the cytotoxicity call in assay [1] is “inactive”. The growth inhibition call in assay [2] is “inactive”.

Regarding `O=c1[nH]cnc2nc[nH]c12`, in assay [1], the cytotoxicity call is “inactive”. In addition, the growth inhibition call in assay [2] was “inactive”.

In the case of `CCS(=O)(=O)N1C[C@]2(C1)CN([C@@H](CO)c1c2c2ccc(cc2n1C)OC)C(=O)c1ccc(cc1)F`, the cytotoxicity call in assay [1] was “inactive”. The growth inhibition call in assay [2] was “inactive”.

As to `C[C@@H]1CCCCO[C@@H](CN(C)S(=O)(=O)c2ccc(F)cc2)[C@@H](C)CN([C@H](C)CO)C(=O)c2cc(NC(=O)Nc3ccc4c(c3)OCO4)ccc2O1`, the cytotoxicity call in assay [1] was “inactive”. The growth inhibition call in assay [2] was “inactive”.

On to `CNC[C@@H]1Oc2c(NS(=O)(=O)c3cn(C)cn3)cccc2C(=O)N([C@H](C)CO)C[C@@H]1C`, for which, in assay [1], the cytotoxicity call is “inactive”. The growth inhibition call in assay [2] was “inactive”.

With `NCc1cnc(Nc2ccccc2)nc1`, in assay [1], the cytotoxicity call is “inactive”. The growth inhibition call in assay [2] was “inactive”.

In the case of `C[C@@H]1CN([C@H](C)CO)C(=O)c2cccc(NC(=O)c3ccncc3)c2O[C@@H]1CN(C)Cc1ccc(-c2ccccc2)cc1`, the cytotoxicity call in assay [1] is “inactive”. Further, the growth inhibition call in assay [2] was “inactive”.

As to `C[C@@H]1CN([C@@H](C)CO)C(=O)CCCn2cc(nn2)CO[C@@H]1CN(C)S(=O)(=O)c1ccc(-n2cccn2)cc1`, the cytotoxicity call in assay [1] was “inactive”. Moreover, the growth inhibition call in assay [2] was “inactive”.

As to `C[C@H](CO)N1C[C@H](C)[C@H](CN(C)Cc2ccc(C(F)(F)F)cc2)Oc2ccc(NC(=O)Nc3ccccc3)cc2CC1=O`, the cytotoxicity call in assay [1] is “active”. Moreover, the growth inhibition call in assay [2] is “inactive”.

As for `Cc1ccc(S(=O)(=O)N(C)C[C@@H]2OCCCC[C@@H](C)Oc3ccc(NC(=O)Nc4ccccc4)cc3C(=O)N([C@H](C)CO)C[C@H]2C)cc1`, in assay [1], the cytotoxicity call is “inactive”. Moreover, the growth inhibition call in assay [2] was “inactive”.

For `CO[C@@H]1CN(C)C(=O)c2cc(NC(=O)NC(C)C)ccc2OC[C@@H](C)N(Cc2ccc(-c3ccccn3)cc2)C[C@H]1C`, the cytotoxicity call in assay [1] was “inactive”. In assay [2], the growth inhibition call is “inactive”.

`COc1ccc([Si](C)(C)[C@@H]2[C@@H](CCO)O[C@]3(C(=O)N(Cc4ccc(N5C(=O)c6cccc7cccc5c67)cc4)c4ccccc43)[C@H]2C)cc1`: the cytotoxicity call in assay [1] was “inactive”. The growth inhibition call in assay [2] was “inactive”.

Take `CON=C(C(=O)NC1C(=O)N2C(C(=O)[O-])=C(CSc3nc(=O)c([O-])nn3C)CSC12)c1csc(N)n1.O.O.O.[Na+].[Na+]` (stereo not drawn): the cytotoxicity call in assay [1] is “inactive”. In addition, in assay [2], the growth inhibition call was “inactive”.
